{"source": "PubChem BioAssay (NCI)", "note": "Values joined by “and” are separate entries in the source; they are usually repeats but may differ in a detail not shown here. Identical values can stand only once.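 Grown in 96-well plates, cells were treated for 48 hours with each compound at five concentrations. Insufficient inhibition: endpoint recorded as highest concentration tested. GI50 marks 50% less growth. TGI marks complete inhibition of growth.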"}
{"system": "NCI-H322M lung", "test": "inhibition of tumour cell growth, NCI panel, 48 h", "units": {"TGI": "µM"}}
{"smiles": "Nc1c(Cl)c([N+](=O)[O-])cc2c1OCCCCO2", "TGI": "> 100"}
{"smiles": "O=c1[nH]c2ccsc2c(=O)n1COCc1ccccc1", "TGI": "> 100"}
{"smiles": "CN(C)CC1CCn2c(c(C3=C(c4cn(C)c5ccccc45)C(=O)NC3=O)c3ccccc32)C1", "note": "(stereo unspecified)", "GI50": "3.96 µM", "TGI": 8.84}
{"smiles": "O=C1/C(=C/c2ccc(Cl)cc2)CN(C(=O)C(Cl)Cl)C/C1=C\\c1ccc(Cl)cc1", "GI50": "0.398 µM", "TGI": 1.51}
{"smiles": "CC1(C)N=C(N)N=C(N)N1c1cccc(OCc2cccc([N+](=O)[O-])c2)c1", "TGI": "> 100"}
{"smiles": "O=C(O)CC1(C(=O)O)CCCCC1", "TGI": "> 100"}
{"smiles": "C=C1CC(COc2ccc3ccc(=O)oc3c2)(c2ccccc2)OC1=O", "note": "(stereo unspecified)", "TGI": 24.3}
{"smiles": "O=C(CCCN1CC=C(n2c(=O)[nH]c3ccccc32)CC1)c1cccs1", "TGI": "> 100"}
{"smiles": "Cc1ccc(C2=NO[C@@H]3C(=O)N(c4ccc(Cc5ccc(N6C(=O)[C@H]7C(c8ccc(C)cc8)=NO[C@H]7C6=O)cc5)cc4)C(=O)[C@H]23)cc1", "TGI": "> 100"}
{"smiles": "CC1C(=O)N(C)C2(CO)C(=O)O[C@H](C)C12O", "note": "(stereo partly specified)", "TGI": "> 100"}
{"smiles": "COc1ccc(/C(Cl)=C(\\C=O)c2ccc(Cl)c(Cl)c2)cc1OC", "TGI": 18.4}
{"smiles": "CCN(CC)CCOc1cc2c(C(=O)OC)c(C)oc2cc1C(C)=O", "GI50": "15.8 µM", "TGI": 58.7}
{"smiles": "CN(C)CCN1C(=O)c2ccccc2C1(O)c1ccc(Cl)cc1", "note": "(stereo unspecified)", "TGI": "> 100"}
{"smiles": "Nc1ccc(C(=O)NN2C(=O)C(Cl)C2c2ccccc2O)cc1", "note": "(stereo unspecified)", "TGI": "> 100"}
{"smiles": "COc1ccc(C(=O)N2CCN(c3ccc4[nH]c(=O)oc4c3)CC2)cc1", "TGI": "> 100"}
{"smiles": "CCOC(=O)/C(=C\\NC(C)(C)C)c1nc2ccccc2o1", "TGI": "> 100"}
{"smiles": "CCOC(=O)c1c(Cl)c2c(n1Cc1cc(OC)cc(OC)c1)-c1oncc1CCC2", "GI50": "0.48 µM", "TGI": "> 100"}
{"smiles": "C=CC1(c2ccc(Br)cc2)OCCCO1", "TGI": "> 100"}
{"smiles": "O=C(NN1C(=O)c2ccccc2C1=O)c1ccccc1Nc1ccccc1C(=O)NN1C(=O)c2ccccc2C1=O", "TGI": "> 100"}
{"smiles": "COC(=O)[C@@H](C)C[C@H](Cc1ccccc1)NC(=O)c1csc([C@@H](C[C@H](C(C)C)N(C)C(=O)[C@@H](NC(=O)[C@H]2CCCCN2C)C(C)C)OC(C)=O)n1", "GI50": "0.000454 µM and 0.0025 µM", "TGI": "> 25"}
{"smiles": "Cc1ccc(S(=O)(=O)N/N=C(\\C(=O)Nc2cccc([N+](=O)[O-])c2)c2nc3ccc([N+](=O)[O-])cc3[nH]c2=O)cc1", "TGI": "> 100"}
{"smiles": "O=C(CC1(O)C(=O)Nc2c(Cl)cc(Cl)cc21)c1ccc2ccccc2c1", "note": "(stereo unspecified)", "TGI": 26.2}
{"smiles": "ON(CCc1ccccn1)Cc1ccccc1", "TGI": "> 100"}
{"smiles": "[N-]=[N+]=CC(=O)OCC(N)C(=O)O", "note": "(stereo unspecified)", "GI50": "5.23 µM", "TGI": "> 100"}
{"smiles": "COc1ccc(CCN(C)C(=O)CC(C#N)(c2ccccc2)c2ccc(OC)c(OC)c2)cc1OC", "note": "(stereo unspecified)", "TGI": "> 100"}
{"smiles": "CC(Oc1ccc(Cl)cc1Cl)C(=O)NN1C(=O)CSC1c1ccc(Cl)cc1", "note": "(stereo unspecified)", "TGI": "> 100"}
{"smiles": "CCO/C(O)=C(/C(=N)N1CCCC1)C(=O)Nc1ccc(Cl)cc1", "TGI": "> 100"}
{"smiles": "O=C(O)CCC1CCC(c2cc(F)ccc2F)(S(=O)(=O)c2ccc(Cl)cc2)CC1", "note": "(stereo unspecified)", "GI50": "56.6 µM and > 100 µM", "TGI": "> 100"}
{"smiles": "CC(C)(C)C(=O)Nc1cccc(-c2ccc[nH]2)n1", "TGI": "> 100"}
{"smiles": "COc1cc(/C=C2\\N=C(c3ccccc3)N(/N=C/c3cc4cc(C)ccc4nc3Cl)C2=O)cc(OC)c1OC", "TGI": "> 100"}
{"smiles": "CCOC(=O)/C=C1\\Nc2ccccc2-n2nnnc21", "TGI": "> 100"}
{"smiles": "CC1=CCC[C@]2(C)C1=CC(=O)O[C@H]2c1ccoc1", "TGI": "> 100"}
{"smiles": "CCCCc1ccc(N2C(=O)c3cccnc3S2(=O)=O)cc1", "TGI": "> 100"}
{"smiles": "COC(=O)[C@]12CSC[C@H]1C[C@H](c1ccc(N(C)C)cc1)N2", "TGI": "> 100"}
{"smiles": "CCCCCCCCCCCC(=O)OCC1OC(n2cc(F)c(=O)[nH]c2=O)C(N)C(O)C1O", "note": "(stereo unspecified)", "TGI": "> 100"}
{"smiles": "CSc1ccc(-c2cc(-c3nc4ccccc4[nH]3)nc3[nH]c(-c4nc5ccccc5[nH]4)cc(=O)c23)cc1", "TGI": "> 100"}
{"smiles": "COC(=O)c1c2c(c(C)[n+]([O-])c1C)C(=O)C(NCc1ccc(F)c(F)c1)=CC2=O", "GI50": "2.07 µM", "TGI": 6.59}
{"smiles": "Cc1n[nH]c(=O)n1/N=C/c1cccnc1", "TGI": "> 100"}
{"smiles": "C(/C=N/NC1=NCCCN1)=N\\NC1=NCCCN1", "TGI": "> 100"}
{"smiles": "Cn1cc(C2=C(c3c4n(c5ccccc35)CCC(CN)CC4)C(=O)NC2=O)c2ccccc21", "note": "(stereo unspecified)", "GI50": "3.32 µM", "TGI": 8.45}
{"smiles": "COC1CC2CCC(C)[C@](O)(O2)C(=O)C(=O)N2CCCCC2C(=O)OC(C(C)CC2CCC(O)C(OC)C2)CC(=O)C(C)C=C(C)C(OC(=O)CN(C)C)C(OC)C(=O)C(C)CC(C)/C=C/C=C/C=C\\1C", "note": "(stereo partly specified)", "TGI": 23.1}
{"smiles": "CSc1sc(=S)sc1SC", "TGI": "> 100"}
{"smiles": "CC(C)=CCC/C(C)=C/CC/C(=C/COP(=O)(OCc1ccc([N+](=O)[O-])o1)N(C)CCCCCl)C(C)(C)C", "note": "(stereo unspecified)", "TGI": 0.0773}
{"smiles": "COc1cnc2c(c1)C(=O)c1c-2n(CCCN2CCN(C)CC2)c(=O)c2cc(Cl)ccc12", "GI50": "4.34 µM", "TGI": 25.7}
{"smiles": "COc1cc2c3c(c4cc(OC)c(OC)cc4c2cc1OC)[C@H](O)[C@@H]1CCCN1C3", "TGI": 1.04}
{"smiles": "CCOC(=O)c1cc2ncccc2c2ccccc12", "TGI": "> 100"}
{"smiles": "COC(=O)c1cc(C#N)[nH]c1-c1cccs1", "TGI": "> 100"}
{"smiles": "CSC(=N)N1N=C2c3ccccc3CC[C@@H]2[C@@H]1c1ccccc1", "TGI": 35.7}
{"smiles": "COc1ccc(-c2nc(-c3nc4cc(C)c(C)cc4[nH]3)cc3c2[nH]c2ccccc23)cc1", "GI50": "8.11 µM", "TGI": "> 100"}
{"smiles": "CNC1C(O)CC(OC2C/C=C(\\C)C/C(C)=C/C=C/CCC(C)CNC(=O)/C=C/C=C/C2C)OC1C", "note": "(stereo unspecified)", "TGI": 2.45}
